This is an account of results in patent US20040081647A1 (published 2004).

For the assay, the target named is T1, recombinant human TNFα (RDI) (human, UniProt P01375 partial chain).
T1 construct: Bought
The assay is described as follows: ELISA on plates coated with TNFα at 1 µg/mL, detection with anti-myc-HRP, 1 mM benzamidine.

T1 sequence (P01375 77-233 limits assumed): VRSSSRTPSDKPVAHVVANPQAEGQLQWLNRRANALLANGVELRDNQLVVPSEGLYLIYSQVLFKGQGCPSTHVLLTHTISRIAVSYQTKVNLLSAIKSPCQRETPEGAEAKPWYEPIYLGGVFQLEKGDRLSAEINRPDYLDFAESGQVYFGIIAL

B1: Trypsinogen-myc-his (human cationic trypsinogen, enzyme domain alone) (enzyme)
chain: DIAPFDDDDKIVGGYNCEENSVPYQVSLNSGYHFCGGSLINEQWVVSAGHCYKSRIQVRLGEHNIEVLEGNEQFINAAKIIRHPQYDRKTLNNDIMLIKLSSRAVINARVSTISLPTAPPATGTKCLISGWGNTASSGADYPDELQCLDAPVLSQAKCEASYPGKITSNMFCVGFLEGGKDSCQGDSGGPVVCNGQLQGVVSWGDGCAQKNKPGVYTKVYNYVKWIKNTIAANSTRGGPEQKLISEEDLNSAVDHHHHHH
notes: also called tgn
On to B1, for which the binding result is reported as “no binding (tested: conditioned medium diluted 1:10)”.
